# Results published in the supplement of paper PMC12217912.
# The other results are listed elsewhere or left out. Sequences were assembled here from the parent chain. Values near 0.05 are background.
# B1: TEV protease; numbered along this chain (parent)
# chain: MGESLFKGPRDYNPISSSICHLTNESDGHTTSLYGIGFGPFIITNKHLFRRNNGTLVVQSLHGVFKVKDTTTLQQHLVDGRDMIIIRMPKDFPPFPQKLKFREPQREERICLVTTNFQTKSMSSMVSDTSCTFPSGDGIFWKHWIQTKDGQCGSPLVSTRDGFIVGIHSASNFTNTNNYFTSVPKNFMELLTNQEAQQWVSGWRLNADSVLWGGHKVFMVKPEEPFQPVKEATQL
# Variants of: B1
# Test: raw area under fraction-flipped curve 0-4 h after induction (AUC4h, not background-subtracted), DNA-recorder readout of cleavage of the substrate (dimensionless); higher = more cleavage of the substrate by the protease variant
# Conditions: temperature: 34 °C; time window: 0-4 h after rhamnose induction
# Experimental: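 In vivo DNA recorder in E. coli TOP10(DE3) ΔrhaA at 34 °C. Each TEVp single-site mutant (parent TEVp 0) is paired with a single-site variant of the 7-mer TEVs (canonical ENLYFQ|S). The substrate sits between flexible linkers in a Bxb1-sfGFP-TEVs-SsrA fusion, so cleavage stabilises Bxb1 and speeds flipping of a recombination array, read by NGS. The value is the raw area under the fraction-flipped curve over 0-4 h after rhamnose induction (AUC4h), with ≥20 reads per time point. It is not background-subtracted; inactive controls average about 0.047.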
# 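Also: Bxb1 expression induced with 0.2% (w/v) L-rhamnose at OD600 near 0.5, cultures sampled hourly, flipped fraction per protease–substrate barcode pair counted by paired-end Illumina sequencing.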
Variant,area with substrate EALYFQS,area with substrate ECLYFQS,area with substrate EELYFQS,area with substrate EFLYFQS,area with substrate EGLYFQS,area with substrate EILYFQS,area with substrate ELLYFQS,area with substrate EPLYFQS,area with substrate EQLYFQS,area with substrate ERLYFQS,area with substrate EVLYFQS,area with substrate EWLYFQS,area with substrate EYLYFQS,area with substrate EHLYFQS,area with substrate EKLYFQS,area with substrate EMLYFQS,area with substrate ESLYFQS,area with substrate ETLYFQS,area with substrate EDLYFQS
MGESLFKGPRDYNPISSSICHLTNESDGHTTSLYGIGFGPFIITNKHLFRRNNGTLVVQSLHGVFKVKDTTTLQQHLVDGRDMIIIRMPKDFPPFPQKLKFREPQREERICLVTTNFQTKSMSSMVSDTSCTFPSGDGIFWKHWIQTKDGQCGSPLVSTRDGFIVGIHSASNFTNTNNYFTSVPENFMELLTNQEAQQWVSGWRLNADSVLWGGHKVFMVKPEEPFQPVKEATQL [K185E],0.163,0.117,0.153,0.135,0.124,0.0987,0.137,0.15,0.196,0.142,0.112,0.142,0.0988,,,,,,
MGESLFKGPRDYNPISSSICHLTNESDGHTTSLYGIGFGPFIITNKHLFRRNNGTLVVQSLHGVFKVKDTTTLQQHLVDGRDMIIIRMPKDFPPFPQKLKFREPQREERICLVTTNFQTKSMSSMVSDTSCTFPSGDGIFWKHWIQTKDGQCGSPLVSTRDGFIVGIHSASNFTNTNNYFTSVPFNFMELLTNQEAQQWVSGWRLNADSVLWGGHKVFMVKPEEPFQPVKEATQL [K185F],0.109,0.122,0.132,,0.0834,0.0617,0.0926,0.127,0.124,0.0912,0.0953,0.109,0.132,0.0904,0.114,0.109,0.124,,
MGESLFKGPRDYNPISSSICHLTNESDGHTTSLYGIGFGPFIITNKHLFRRNNGTLVVQSLHGVFKVKDTTTLQQHLVDGRDMIIIRMPKDFPPFPQKLKFREPQREERICLVTTNFQTKSMSSMVSDTSCTFPSGDGIFWKHWIQTKDGQCGSPLVSTRDGFIVGIHSASNFTNTNNYFTSVPINFMELLTNQEAQQWVSGWRLNADSVLWGGHKVFMVKPEEPFQPVKEATQL [K185I],0.157,0.109,,0.111,0.0935,0.113,,0.134,0.101,,,0.112,0.115,,0.106,0.0973,0.108,0.0992,
MGESLFKGPRDYNPISSSICHLTNESDGHTTSLYGIGFGPFIITNKHLFRRNNGTLVVQSLHGVFKVKDTTTLQQHLVDGRDMIIIRMPKDFPPFPQKLKFREPQREERICLVTTNFQTKSMSSMVSDTSCTFPSGDGIFWKHWIQTKDGQCGSPLVSTRDGFIVGIHSASNFTNTNNYFTSVPKWFMELLTNQEAQQWVSGWRLNADSVLWGGHKVFMVKPEEPFQPVKEATQL [N186W],0.111,0.0848,0.111,,,0.0804,,0.133,0.102,,0.101,0.0788,0.0758,,0.0766,0.109,0.103,,
MGESLFKGPRDYNPISSSICHLTNESDGHTTSLYGIGFGPFIITNKHLFRRNNGTLVVQSLHGVFKVKDTTTLQQHLVDGRDMIIIRMPKDFPPFPQKLKFREPQREERICLVTTNFQTKSMSSMVSDTSCTFPSGDGIFWKHWIQTKDGQCGSPLVSTRDGFIVGIHSASNFTNTNNYFTSVPKNCMELLTNQEAQQWVSGWRLNADSVLWGGHKVFMVKPEEPFQPVKEATQL [F187C],0.143,,,,,,,,0.135,,0.0755,,,,,,,,
MGESLFKGPRDYNPISSSICHLTNESDGHTTSLYGIGFGPFIITNKHLFRRNNGTLVVQSLHGVFKVKDTTTLQQHLVDGRDMIIIRMPKDFPPFPQKLKFREPQREERICLVTTNFQTKSMSSMVSDTSCTFPSGDGIFWKHWIQTKDGQCGSPLVSTRDGFIVGIHSASNFTNTNNYFTSVPKNNMELLTNQEAQQWVSGWRLNADSVLWGGHKVFMVKPEEPFQPVKEATQL [F187N],0.0386,0.0496,,,0.0905,0.0479,,,0.0386,,0.0507,0.0676,,0.0619,0.0537,,0.0578,0.0451,
MGESLFKGPRDYNPISSSICHLTNESDGHTTSLYGIGFGPFIITNKHLFRRNNGTLVVQSLHGVFKVKDTTTLQQHLVDGRDMIIIRMPKDFPPFPQKLKFREPQREERICLVTTNFQTKSMSSMVSDTSCTFPSGDGIFWKHWIQTKDGQCGSPLVSTRDGFIVGIHSASNFTNTNNYFTSVPKNFMELLTNQFAQQWVSGWRLNADSVLWGGHKVFMVKPEEPFQPVKEATQL [E195F],0.12,0.0982,,,0.0843,0.0934,0.0981,,0.108,0.0985,0.0877,0.0814,,0.093,0.103,0.1,0.101,,0.115
MGESLFKGPRDYNPISSSICHLTNESDGHTTSLYGIGFGPFIITNKHLFRRNNGTLVVQSLHGVFKVKDTTTLQQHLVDGRDMIIIRMPKDFPPFPQKLKFREPQREERICLVTTNFQTKSMSSMVSDTSCTFPSGDGIFWKHWIQTKDGQCGSPLVSTRDGFIVGIHSASNFTNTNNYFTSVPKNFMELLTNQEHQQWVSGWRLNADSVLWGGHKVFMVKPEEPFQPVKEATQL [A196H],0.104,0.106,0.118,,,0.0977,0.0373,0.0864,0.118,0.098,0.0821,,,,0.0736,0.14,0.128,,
MGESLFKGPRDYNPISSSICHLTNESDGHTTSLYGIGFGPFIITNKHLFRRNNGTLVVQSLHGVFKVKDTTTLQQHLVDGRDMIIIRMPKDFPPFPQKLKFREPQREERICLVTTNFQTKSMSSMVSDTSCTFPSGDGIFWKHWIQTKDGQCGSPLVSTRDGFIVGIHSASNFTNTNNYFTSVPKNFMELLTNQEIQQWVSGWRLNADSVLWGGHKVFMVKPEEPFQPVKEATQL [A196I],0.134,0.0791,0.127,,0.107,0.0823,,0.11,0.115,0.112,0.0939,0.0967,0.117,0.115,0.0909,0.107,0.1,0.123,0.118
